# Values joined by “and” are separate entries in the source; they are usually repeats but may differ in a detail not shown here. Equal entries are not always repeated. Inconclusive means that the source gave no clear call. Such entries were picked first, then a sample of the others. For some of these results: Where the call is inconclusive, the potency comes from a doubtful curve fit. Active and inactive are the calls of the source. Unless noted, calls follow the shape of the dose curve; as a rule, active = well fitted curve in either direction with a large enough effect (not every such curve was filed as active); inconclusive = small, poorly fitted or top-dose-only effect, or another doubt; inactive = flat fitted curve, though single readings scatter.
# How the values were obtained:
# [1] = AP1 Signaling Pathway (AID 357); conditions: ME-180 AP-1-bla reporter, EGF-induced, beta-lactamase ratio, 5 h; at 17.2 µM (top of the series) unless noted;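 also: ME-180 reporter cells stimulated with EGF at its EC50 level; top concentration of the series differs between compounds; % is scaled to controls: 0 for no effect and ±100 for the full control effect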
# Outline: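 A ratiometric CCF4 readout (405 nm excitation; 460 and 530 nm emission) quantified AP-1-driven beta-lactamase in ME-180 cells after 5 h with compound and EC50 EGF; AC50 values were derived for activators and inhibitors.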
# [2] = NFAT Signaling Pathway (AID 444); conditions: Jurkat NFAT-bla M1, carbachol, beta-lactamase ratio, 5 h;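 also: carbachol stimulus at about its EC50 of 1 µM final; % is scaled to controls: 0 for no effect and ±100 for the full control effect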
# Outline: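 Jurkat cells carrying an NFAT-driven β-lactamase reporter and co-transfected muscarinic M1 receptor were treated with compound plus carbachol (1 uM final, an EC50 level) for 5 h at 37 °C. CCF4 loading followed for 1 h at RT; 460/530 nm ratio gave %activity.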
# [3] = Stat Signaling Pathway (AID 446); conditions: ME-180 SIE beta-lactamase reporter, IL-6 stimulated, 5 h; at 7.69 µM (top of the series) unless noted;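 also: ME-180 cervical cancer cells given 40 pM IL-6 alongside compound; SIE-controlled beta-lactamase reporter measured as 460/530 nm FRET emission ratio; top concentration of the series differs between compounds; % is scaled to controls: 0 for no effect and ±100 for the full control effect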
# Outline: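 ME-180 SIE-bla cells; overnight plating; cpd + IL-6 40 pM, 5 h, 37 C; LiveBLAzer 2.5 h RT; 460/530 nm emission ratio. Normalized to 300 pM IL-6 and 125 nM JAK inhibitor controls.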
# [4] = molecular target: Mitogen-activated protein kinase 10 (Mus musculus) (UniProt Q61831); test: JNK3 AlphaScreen Assay (AID 530); conditions: JNK3 lysate, c-Jun phosphorylation; activity change, negative = inhibition: at 57.1 µM (top of the series);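 also: kinase came from lysate of stimulated human HepG2 cells; signal reports phosphorylation of biotinylated GST-cJun 1-79 at Ser73 with 10 µM ATP; potency is read from the fitted curve at half-maximal effect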
# Outline: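 Inhibitors reduce antibody binding to phosphorylated biotin-cJun, lowering AlphaScreen luminescence. Lysates from HepG2 cells pre-activated by IL-1beta plus TNF-alpha supplied JNK3; compounds were titrated.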
# [5] = molecular target: 3',5'-cyclic-AMP phosphodiesterase 4B (Homo sapiens) (UniProt Q07343); test: qHTS Assay for Inhibitors of PDE-IV (AID 607; active = well fitted activation curve with a large enough effect in the main read-out, with a control signal flat, not every such curve was filed as active; inconclusive = small, poorly fitted or top-dose-only effect, or effect the other way, or a change in a side signal; also: potency is read from the fitted curve at half-maximal effect; as to activation (PDE inhibition): % of control where 0% means no effect); conditions: HEK293 ACTOne CNG channel cells, membrane potential fluorescence; activation (PDE inhibition): at 22.9 µM (top of the series)
# Outline: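 ACTOne HEK293 cells carry a modified cAMP-gated CNG channel and express endogenous PDE4; plated 1000 cells/well, compounds up to 22.9 uM final. Membrane-potential dye fluorescence (ex 535/em 590) was read; parental cells received 10 uM forskolin + 100 uM RO 20-1724.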
# [6] = qHTS Assay for Identification of Small Molecule Antagonists for NFkB Signaling Pathway (AID 895; active = well fitted inhibition curve with a large enough effect in the signal ratio, with a control signal flat, not every such curve was filed as active; inconclusive = small, poorly fitted or top-dose-only effect, or effect the other way, or a change in a side signal; the % refers to the signal ratio; also: % is scaled to controls: 0 for no effect and ±100 for the full control effect); conditions: NFkB beta-lactamase reporter cells, FRET ratio 460/530, stimulated with 10 pM TNF alpha; activity change, negative = inhibition: at 38.3 µM (top of the series)
# Outline: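 NFkB-bla ME-180 cervical carcinoma cells with beta-lactamase reporter under NFkB response element; compounds added, then TNF alpha at 10 pM final (EC50), 5 h at 37 C. LiveBLAzer substrate 2 h, room temperature; emission 460/530 nm at 405 nm excitation.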
# [7] = qHTS Assay for Identification of Small Molecule Antagonists for Thrombopoietin (TPO) Signaling Pathway (AID 918; active = well fitted curve in the direction sought with a large enough effect; inconclusive = small, poorly fitted or top-dose-only effect, or another doubt; inactive = no such curve, though single readings can be large; an effect the other way counts as inactive or inconclusive; also: nearly all actives have a fitted effect of over 60% in size); conditions: TPO-dependent cell signaling reporter, antagonist mode; activity change, negative = inhibition: at 38.5 µM (top of the series)
# Outline: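 Ba/F3 (murine, hTPO-R, GPIIb-luc reporter); overnight IL-3 withdrawal; cpd + TPO 26 pM final (EC50); 24 h 37 C/5% CO2; Steadylite luminescence after 10 min RT.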
# [8] = molecular target: Ubiquitin carboxyl-terminal hydrolase 1 (Homo sapiens) (UniProt O94782); test: Inhibitors of USP1/UAF1: Pilot qHTS (AID 504865; active = well fitted curve in the direction sought with a large enough effect; inconclusive = small, poorly fitted or top-dose-only effect, or another doubt; inactive = no such curve, though single readings can be large; an effect the other way counts as inactive or inconclusive;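 also: rhodamine fluorescence freed from ubiquitin-rhodamine substrate followed over time; potency is read from the fitted curve at half-maximal effect; nearly all actives have a fitted effect of over 35% in size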)
# Outline: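 Deubiquitinase activity followed as kinetic rhodamine fluorescence release from 150 nM Ub-Rho. 1 nM USP1/UAF1 with compound, after 15 min room-temperature preincubation, in HEPES pH 7.8 buffer containing TCEP, EDTA, BSA and Tween-20.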
# [9] = at 17.2 µM (top of the series) unless noted
# Tags tell the direction and shape of the fitted curve.
# UniProt Q07343, sequence (Q07343 whole entry, looked up): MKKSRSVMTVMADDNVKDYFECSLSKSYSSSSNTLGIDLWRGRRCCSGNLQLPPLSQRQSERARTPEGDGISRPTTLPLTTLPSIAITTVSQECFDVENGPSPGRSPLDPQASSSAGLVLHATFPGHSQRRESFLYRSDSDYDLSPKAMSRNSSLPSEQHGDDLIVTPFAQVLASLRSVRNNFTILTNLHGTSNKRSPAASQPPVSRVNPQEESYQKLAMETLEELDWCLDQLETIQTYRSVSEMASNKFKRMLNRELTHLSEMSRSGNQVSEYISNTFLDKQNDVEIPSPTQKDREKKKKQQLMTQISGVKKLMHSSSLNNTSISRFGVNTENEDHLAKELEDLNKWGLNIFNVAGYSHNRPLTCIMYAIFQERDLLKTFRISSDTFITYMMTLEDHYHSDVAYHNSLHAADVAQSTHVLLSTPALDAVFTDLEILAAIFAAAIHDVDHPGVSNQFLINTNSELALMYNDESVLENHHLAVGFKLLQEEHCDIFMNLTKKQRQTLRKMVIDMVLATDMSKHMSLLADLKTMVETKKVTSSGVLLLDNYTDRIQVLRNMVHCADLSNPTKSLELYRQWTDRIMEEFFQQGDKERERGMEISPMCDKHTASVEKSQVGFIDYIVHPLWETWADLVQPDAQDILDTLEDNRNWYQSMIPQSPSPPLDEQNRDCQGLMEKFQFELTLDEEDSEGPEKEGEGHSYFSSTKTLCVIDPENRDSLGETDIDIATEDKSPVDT
# UniProt O94782, sequence (O94782 whole entry, looked up): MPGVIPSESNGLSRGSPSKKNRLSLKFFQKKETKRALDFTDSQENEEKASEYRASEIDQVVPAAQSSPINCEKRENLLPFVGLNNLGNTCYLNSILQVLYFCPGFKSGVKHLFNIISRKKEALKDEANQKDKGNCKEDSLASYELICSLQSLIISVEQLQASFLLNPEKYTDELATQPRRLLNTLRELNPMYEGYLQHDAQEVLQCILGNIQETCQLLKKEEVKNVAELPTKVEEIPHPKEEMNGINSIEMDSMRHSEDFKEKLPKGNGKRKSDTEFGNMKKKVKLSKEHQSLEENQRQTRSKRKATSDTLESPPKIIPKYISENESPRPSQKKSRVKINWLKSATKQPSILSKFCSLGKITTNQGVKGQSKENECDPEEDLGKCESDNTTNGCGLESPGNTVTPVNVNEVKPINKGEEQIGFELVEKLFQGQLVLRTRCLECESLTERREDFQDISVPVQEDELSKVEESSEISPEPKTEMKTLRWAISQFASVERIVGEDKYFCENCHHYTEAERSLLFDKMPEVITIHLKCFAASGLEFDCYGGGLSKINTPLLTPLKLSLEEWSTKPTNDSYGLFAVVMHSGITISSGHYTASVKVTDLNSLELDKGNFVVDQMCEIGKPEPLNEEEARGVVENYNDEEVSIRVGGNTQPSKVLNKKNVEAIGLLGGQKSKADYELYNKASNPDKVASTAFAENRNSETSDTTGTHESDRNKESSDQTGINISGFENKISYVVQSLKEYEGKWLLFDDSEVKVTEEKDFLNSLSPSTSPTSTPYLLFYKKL
smiles,measurement,setting,value
Cc1ccc2[nH]c3c(N4CCN(Cc5ccc6c(c5)OCO6)CC4)ncnc3c2c1,"activity change, negative = inhibition",[1],inconclusive: -49.4% [inhibitor]
same,"activity change, negative = inhibition",[2]; [9],inconclusive: -47.2% [inhibitor]
same,"activity, negative = inhibition",[3],inconclusive: -33.5% [inhibitor] [at 17.2 µM]
O=C(CCN1CCCC1Cc1ccccc1)c1ccc2c(c1)OCCO2 (configuration not stated),"activity change, negative = inhibition",[1],inconclusive: -32.2% [inhibitor]
same,"activity change, negative = inhibition",[2]; [9],inconclusive: -64% [inhibitor]
same,"activity, negative = inhibition",[3],inactive: 14.7% [at 17.2 µM]
N#Cc1nc(COc2ccc(Br)cc2)oc1N1CCCC1,"activity change, negative = inhibition",[1],inconclusive: -49.7% [inhibitor]
same,"activity change, negative = inhibition",[2]; [9],inconclusive: -49.3% [inhibitor]
CCOC(=O)c1[nH]c2cc3c(cc2c1NC(=O)CN1CCCCC1C)OCO3 (configuration not stated),"activity change, negative = inhibition",[1],inconclusive: -26.7% [inhibitor]
same,"activity change, negative = inhibition",[2]; [9],inconclusive: -18.2% [inhibitor]
CCc1cc2c(=O)c(-c3nc4ccccc4[nH]3)coc2cc1OC(=O)N1CCOCC1,"activity change, negative = inhibition",[1],inconclusive: -41.1% [inhibitor]
same,"activity change, negative = inhibition",[2]; [9],inconclusive: 27.3% [activator]
same,"activity, negative = inhibition",[3],inconclusive: -36.5% [inhibitor] [at 17.2 µM]
CCCCOC(=O)c1ccc(NC(=O)CSc2nncn2C)cc1,"activity change, negative = inhibition",[1],inactive: 6.24%
same,"activity change, negative = inhibition",[2]; [9],inactive: 4.69%
CC(C)C[C@H]1C(=O)N2CCC[C@@H]2[C@]2(O)O[C@](NC(=O)[C@H]3C=C4c5cccc6[nH]c(Br)c(c56)C[C@H]4N(C)C3)(C(C)C)C(=O)N12,"activity change, negative = inhibition",[1],inconclusive: -25.6% [inhibitor] [at 38 µM]
same,"activity change, negative = inhibition",[2]; at 17.2 µM (top of the series),inconclusive: -60.2% [inhibitor]
same,"activity change, negative = inhibition",[2]; at 38 µM (top of the series),inconclusive: -52.8% [inhibitor]
same,Potency,[4],"inconclusive: 39.8 µM [activator, single point]"
Cc1cc(NCCNC2=CC(=O)CCC2)nc2ccccc12,"activity change, negative = inhibition",[1],inconclusive: 36.6% [activator]
same,"activity change, negative = inhibition",[2]; [9],inconclusive: -38.4% [inhibitor]
Clc1ccccc1CN(Cc1ccccc1)c1ncnc2nc[nH]c12,"activity change, negative = inhibition",[1],inconclusive: -30.1% [inhibitor]
same,"activity change, negative = inhibition",[2]; [9],inconclusive: -89.8% [inhibitor]
CCCCNC(=O)C(C#N)c1nc2ccccc2nc1N1CCN(c2ccccc2F)CC1 (configuration not stated),"activity change, negative = inhibition",[1],inactive: -4.46%
same,"activity change, negative = inhibition",[2]; [9],inconclusive: -56.6% [inhibitor]
COc1ccccc1N1C(=O)C2ON(c3ccccc3)C(c3ccc(N(C)C)cc3)C2C1=O (configuration not stated),"activity change, negative = inhibition",[1],inconclusive: -31.9% [inhibitor]
same,"activity change, negative = inhibition",[2]; [9],inconclusive: -109% [inhibitor]
COc1cccc(N2CCN(c3ncnc4c3[nH]c3ccccc34)CC2C)c1 (configuration not stated),"activity change, negative = inhibition",[1],inconclusive: -117% [inhibitor]
same,"activity change, negative = inhibition",[2]; [9],active: -139%
same,"activity, negative = inhibition",[3],active: -104% [at 17.2 µM]
Cc1cn([C@H]2C[C@H](O)[C@@H](COC(N)=O)O2)c(=O)[nH]c1=O,"activity change, negative = inhibition",[1],inactive: 2.02% [at 7.69 µM]
same,"activity change, negative = inhibition",[2]; [9],inactive: 0.228% [at 7.69 µM]
COc1ccc(OC)c(NC(=O)CSC2=C(C#N)C(c3ccco3)C3=C(CCCC3=O)N2)c1 (configuration not stated),"activity change, negative = inhibition",[1],inconclusive: -21.6% [inhibitor]
same,"activity change, negative = inhibition",[2]; [9],inconclusive: 57.6% [activator]
Cc1ccc(N2C(=O)c3sc4nnc(C)c(=O)n4c3C2=O)cc1,"activity change, negative = inhibition",[1],inconclusive: 46.2% [activator]
same,"activity change, negative = inhibition",[2]; [9],inconclusive: -64.8% [inhibitor]
same,"activity, negative = inhibition",[3],inconclusive: -30.3% [inhibitor] [at 17.2 µM]
Cc1ccccc1[C@@H](OCCN(C)C)c1ccccc1,"activity change, negative = inhibition",[1],inconclusive: 35.2% [activator] [at 38 µM]
same,"activity change, negative = inhibition",[2]; at 17.2 µM (top of the series),inconclusive: -35.6% [inhibitor]
same,"activity change, negative = inhibition",[2]; at 38 µM (top of the series),inconclusive: -72.5% [inhibitor]
same,Potency,[4],"inconclusive: 39.8 µM [activator, partial curve, poor fit]"
same,Potency,[5],"inactive and inconclusive: 9.51 µM [activator, partial curve, poor fit]"
same,"activity change, negative = inhibition",[6],inconclusive: -42.3%
same,"activity change, negative = inhibition",[7],inconclusive: -13.9% [phenotype inactive]
same,Potency,[8],"inconclusive: 39.8 µM [inhibitor, partial curve, poor fit]"
C[C@@H]1O[C@H](O[C@@H]2[C@H](C)O[C@H](O[C@@H]3[C@H](C)O[C@H](O[C@H]4CC[C@]5(C)[C@@H](CC[C@@H]6[C@H]5C[C@@H](O)[C@]5(C)[C@@H](C7=CC(=O)OC7)CC[C@]65O)C4)C[C@@H]3O)C[C@@H]2O)C[C@H](O)[C@@H]1O,"activity change, negative = inhibition",[1],inconclusive: -51.7% [inhibitor]
same,"activity change, negative = inhibition",[2]; [9],inconclusive: -68.2% [inhibitor]
same,"activity, negative = inhibition",[3],inconclusive: -31.4% [inhibitor] [at 17.2 µM]
COc1ncc2nc(-c3ccccc3)c(=O)n(C[C@H]3CCCO3)c2n1,"activity change, negative = inhibition",[1],inactive: -19.2% [at 7.69 µM]
same,"activity change, negative = inhibition",[2]; [9],inactive: -13.8% [at 7.69 µM]
Cn1cccc1C(=O)N1CCC2(CC1)CCN(C(c1ccccc1)c1ccccc1)CC2,"activity change, negative = inhibition",[1],inactive: -3.6% [at 7.69 µM]
same,"activity change, negative = inhibition",[2]; [9],inconclusive: -34.2% [inhibitor] [at 7.69 µM]

# Reference: PubChem BioAssay (NCATS)
